# Laboratory results as given in the supplement of paper PMC3334620.
# In all, about 33,000 sequences were measured (“E-score (-0.5 to 0.5)”: median about -0.054, highest 2% from about 0.39 on). Some of the results follow.
# Target: Ylr278c (UniProt Q05854)
# Test: PBM E-score (8-mer binding enrichment) (E-score (-0.5 to 0.5)); higher = stronger / more preferred TF binding; most listed sequences are background and not binding sites
# Conditions: protein concentration: 200 nM; construct: GST-DNA-binding domain
# Procedure: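 Universal 'all 10-mer' protein binding microarrays (Agilent AMADID 015681) probed with GST-tagged S. cerevisiae TFs (full-length or DBD) made by in vitro transcription/translation (PURExpress), about 100-200 nM. Bound TF was detected with fluorescent anti-GST. Each ungapped 8-mer (which stands for itself and its reverse complement) is scored by the PBM enrichment score (E-score), a modified Wilcoxon-Mann-Whitney statistic from -0.5 to +0.5, computed with the Universal PBM Analysis Suite. Scale: above 0.35 generally sequence-specific binding.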
row,Sequence,PBM E-score
1,ACGGGAAC,0.0817
2,GAAGTGTC,0.0815
3,ACTGAGTG,-0.0329
4,AGGTTTCA,-0.0489
5,ACTAAGCA,-0.251
6,CCTGCTGC,-0.0437
7,ATCAGAGA,-0.213
8,CATTCTAA,-0.0683
9,AATCACTC,-0.206
10,ACGCACCA,-0.158
11,TACTATCA,-0.00451
12,ACCCGCGT,-0.0308
13,CATATACC,0.00786
14,GTTTCGCA,-0.0936
15,GGGGCAGA,-0.101
16,ACTCTGTC,-0.228
17,GCCACGAA,-0.214
18,ATACTTTC,0.00946
19,CTTGATAA,-0.0321
20,GTCAGCAC,-0.0241
21,CGCTCGCA,0.136
22,AAAACAGA,-0.131
23,ACCCCCAT,-0.294
24,ATATGTCC,0.198
25,CTTCCTAA,-0.0723

row,Sequence,PBM E-score
1,CCGCACTA,0.293
2,CCGAACCC,0.269
3,CGTGGGAG,0.0745
4,TAATCCAA,-0.121
5,CCCCAAAC,-0.135
6,CCCTCTCA,-0.296
7,ACTCGAAG,-0.1
8,CCCGAGTA,0.241
9,ACCGAGAG,0.0585
10,AACGGACC,0.251
11,CCGAAGAG,0.228
12,GGGCGTGA,0.0298
13,GCCGCTTA,0.173
14,TATACAAA,-0.0234
15,GTCGACAA,-0.0883
16,CCAATGAG,-0.219
17,AGCTGTCG,-0.102
18,ACAAGTTC,-0.057
19,AATTACGC,-0.19
20,CTGACGGC,0.128
21,ATCACAGA,-0.149
22,AGGCAAAA,0.0496
23,AGCCAGAT,-0.0935
24,GGAACTAA,0.294
25,ACAGTATG,-0.159

row,Sequence,PBM E-score
1,AGTCCACA,-0.116
2,CACTTCCA,-0.112
3,AGCGCCTC,0.0381
4,CGGGTTCA,0.156
5,CATATAAC,-0.0367
6,ACCCCACT,0.0507
7,AAATGTAT,0.0681
8,GGTCTTCA,-0.0994
9,CAAGCCGA,0.118
10,AACATTAT,-0.0876
11,CAGATGTA,-0.0526
12,AAGCACAG,-0.03
13,AAAGCAAC,-0.195
14,AACAGTCG,0.048
15,GGGGATAA,0.166
16,CCCTTCGC,-0.131
17,ACTCCGGG,0.481
18,TCTAGCCA,-0.184
19,GCCAAGTA,-0.286
20,CGCTACTA,0.185
21,ACATTGCG,0.0315
22,AACACCCA,-0.127
23,GCGCTGTA,-0.0297
24,GCACGAAA,-0.0804
25,ATTCGTGA,-0.241

row,Sequence,PBM E-score
1,GAGTGCCA,-0.179
2,ATAGAGAT,-0.177
3,GCAGCCGA,0.156
4,ATCATATC,0.0267
5,GACAATGA,-0.0237
6,ATCAACGA,0.0531
7,CAGGACAC,-0.0853
8,TATAATCA,0.00794
9,AACAACCG,0.14
10,AAATATAT,0.0878
11,TGCTGACA,-0.236
12,CGCAAAAA,0.0607
13,CAAGAATC,0.0987
14,AGGCTTCC,0.0193
15,CCCGTGAA,0.0652
16,GAATCGCC,0.122
17,TTGGTAAA,-0.0756
18,CGGATGTA,0.307
19,AGGAGGCA,0.0142
20,GTAGAAAA,-0.159
21,TGATCTAA,-0.15
22,AGCCGATA,0.0691
23,GGTCTGAA,-0.00874
24,CTTGACTC,-0.162
25,GCTGTGGA,-0.0372

row,Sequence,PBM E-score
1,ACAGACGG,-0.0501
2,AAATGGCC,0.148
3,ACTTACGG,0.228
4,ATGAGGCC,-0.0719
5,CAAAGGGA,-0.279
6,TGCGTTAA,-0.238
7,ACGGCGGA,0.37
8,AGTACCAA,0.0288
9,CCGGGCCC,0.339
10,AGCACGTC,-0.0777
11,CACGGTTA,0.0945
12,CCATAGAA,-0.134
13,CAAATTCC,0.338
14,AACATCAC,-0.154
15,GGAATCGA,0.159
16,GTATCACA,-0.163
17,TTACAGAA,-0.225
18,ATACACAC,-0.256
19,AGTCGTGG,-0.166
20,GAACAAAC,0.137
21,GGCGTTAC,-0.0409
22,ACCTTAGG,-0.17
23,ACGTAGGC,-0.281
24,AGATACCG,0.149
25,CTTACATA,-0.0547

row,Sequence,PBM E-score
1,CAATCGTC,-0.0904
2,ACGAAGGG,-0.305
3,CCGTCACA,0.09
4,TACTTTCA,-0.0659
5,AAAGCTCT,-0.224
6,AACCTATC,-0.0841
7,CTTGGCTC,-0.188
8,AGCGGAGG,0.302
9,CCCCCTTA,-0.247
10,AGCTTGAC,-0.138
11,GAATCACA,0.14
12,CCCTACTC,0.201
13,AATCTACA,-0.114
14,AGTGACAC,-0.0981
15,CAGACGAG,-0.246
16,CGCTTAAC,-0.0508
17,CCGTATCG,0.122
18,CCGCGCAG,0.274
19,GGGCCACA,-0.0157
20,ATTCGCGC,0.118
21,CCGTCGTC,0.127
22,GACCGATC,0.243
23,ATTGAATG,-0.0302
24,AAGGTCCA,-0.124
25,GTGTTGAA,-0.195

row,Sequence,PBM E-score
1,AGAAGCCC,0.201
2,CATAGGTC,-0.157
3,GGGCCCCA,0.0371
4,CAAGTACG,-0.185
5,ATCCTGCA,-0.185
6,AGTCCTCA,0.0196
7,CGCAGACG,0.0302
8,CCCTGCGG,0.132
9,AACACTCT,0.0393
10,ACAATGTC,-0.0284
11,AAAAGTGG,0.0219
12,CCAAATGC,-0.0895
13,AGTACTAT,-0.178
14,ATTACTCA,-0.132
15,ACTATGCC,-0.0527
16,TCGGGTCA,0.232
17,CGCTATAA,-0.0532
18,ATCCGCCG,0.401
19,AGTTGTTA,-0.0971
20,AAGCGTGT,-0.23
21,AGCCAGTG,-0.268
22,AGGAGCAT,-0.156
23,AGTTAACC,0.0556
24,CGAGACGC,-0.00261
25,AATACATT,-0.121

row,Sequence,PBM E-score
1,CGCATAGA,-0.00481
2,AAACGCTT,-0.0633
3,TCTTAACA,-0.209
4,CACTTGAA,-0.137
5,CCCGATGA,0.295
6,TATGGCGA,-0.119
7,ATAGAGAA,-0.0893
8,CAGTCAAA,-0.143
9,ACAGGCAC,-0.126
10,CGTGACTA,-0.114
11,CTAATCGA,-0.0569
12,AATACCGA,0.224
13,ACTCTGAA,-0.0533
14,AGATAAGA,-0.0454
15,CTTACAGA,-0.0798
16,AGCGCAGC,0.0149
17,CAATGCAG,-0.0883
18,GAGGTAGC,-0.0618
19,ACAAAACG,0.149
20,AATAGTGT,0.104
21,CGGTCACA,0.0763
22,ACCGGTCC,0.337
23,AGCAGACC,-0.132
24,AAGTCGTG,-0.158
25,GACTAACA,0.00497

row,Sequence,PBM E-score
1,CCTCTGTA,-0.276
2,GGAGGGGA,0.0648
3,GCCAACAA,-0.141
4,CCAGCAAG,-0.203
5,CCTATGCC,-0.178
6,CACGGCCA,0.108
7,TGCGGTAA,0.0538
8,CCGACGAG,0.253
9,CGGGGCAG,0.149
10,CTTGAATC,-0.16
11,CTGGAGGA,-0.293
12,CAAGATCC,0.167
13,CACCCAAG,-0.104
14,GAGAACTA,-0.1
15,TCATAGCA,-0.308
16,TACCCCCA,-0.199
17,AGCCTTAC,-0.198
18,CGTGCTGA,-0.224
19,AACCTAGG,-0.102
